Source: PubChem BioAssay AID1745845 (National Center for Advancing Translational Sciences (NCATS), 2022)
The whole screen tested about 360,000 compounds, of which about 2,600 (0.72%) were called active. Inconclusive results, whose numbers are uncertain, are shown with a selection of clear calls. The call rests on the fitted dose curve; in most records, active means well fitted inhibition curve with a large enough effect; inconclusive means small, poorly fitted or top-dose-only effect; inactive means no such curve, though single readings can be large or run the other way. Where the call is inconclusive, the potency comes from a doubtful curve fit.

Assay: Primary qHTS for Inhibitors of ATXN expression; further: nearly all actives have a fitted effect of over 55% in size
Settings: HEK-293 ATXN2-luciferase reporter, luminescence, 24 h; activity change, negative = inhibition: at 57 µM (top of the series)
Summary of the method: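 ATXN2-luciferase reporter cells (luciferase flanked by upstream and downstream ATXN2 gene portions) were treated 24 h at 37 °C with compounds at up to 57 uM. SteadyGlo luminescence gave expression; GF-AFC fluorescence gave viability.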
On the % scale 0 is the no-effect control and ±100 the full control effect; potency means the concentration at half of the fitted maximal effect; tags describe the fitted curve by direction and shape.

Compound | Potency | activity change, negative = inhibition
Cc1oc2ncn(CC(C)C)c(=O)c2c1C(=O)Nc1cc(F)ccc1F | active: 35.5 µM | –
NNc1nc(-c2ccccc2)cc(-c2ccc(Br)cc2)n1 | inconclusive: 17.8 µM [inhibitor, partial curve] | –
CC(C)(C)C(=O)NCCc1nc2ccccc2n1CCCCOc1ccc(Cl)cc1 | inconclusive: 35.5 µM [inhibitor, single point] | –
CCc1ccccc1OC[C@@H](O)CN[C@H]1CCCc2ccccc21 | inconclusive: 25.1 µM [inhibitor, single point] | –
COc1ccc(Cn2c(C(=O)O)c(CNCCc3cccs3)c3ccc(C)cc32)cc1 | inconclusive: 22.4 µM [inhibitor, single point] | –
Cc1ccc(NC(=O)Cn2c(=O)n(CCC(=O)N3CCc4ccccc4C3)c(=O)c3ccccc32)cc1 | – | inactive: 13.4%
CCOC1(c2ccccc2)CC1C(=O)N/N=C/c1cccc([N+](=O)[O-])c1 (stereo not given) | – | inactive: -7.18%
CC(C)c1ccc(NC(=O)C2Cc3c(-c4ccc(Cl)cc4)ccnc3O2)cc1 (stereo not given) | – | inactive: 26%
O=C(Nc1ccccn1)NC12CC3CC(CC(C3)C1)C2 | – | inactive: 10.6%
Cc1ccc(S(=O)(=O)c2c(C)nn(C(C)(C)C)c2OC(=O)c2ccc(Br)o2)cc1 | inconclusive: 28.2 µM [inhibitor, single point] | –
Cc1cc(N2CCOCC2)nc2ccc(NC(=S)NCc3ccc4c(c3)OCO4)cc12 | inconclusive: 22.4 µM [inhibitor, single point] | –
N/C(=N\OC(=O)c1cc(Cl)ccc1Cl)c1ccccn1 | inconclusive: 39.8 µM [inhibitor, single point] | –
CC1=NN(c2cccc(C(=O)O)c2)C(=O)/C1=C\C=C/c1ccccc1 | inconclusive: 7.52 µM [inhibitor, partial curve, poor fit] | –
Nc1c(N(CCC2=CCCCC2)C(=O)COc2ccc(F)cc2Cl)c(=O)[nH]c(=O)n1Cc1ccccc1 | active: 11.2 µM | –
COc1cc2c(NC3CCN(C(C)C)CC3)nc(C3CCCCC3)nc2cc1OCCCN1CCCC1 | active: 21.7 µM | –
O=C(Cn1cnc([N+](=O)[O-])c1)Nc1cc(Oc2ccc(Cl)cc2Cl)cc([N+](=O)[O-])c1 | inconclusive: 31.6 µM [inhibitor, single point] | –
COc1cc2c(cc1OC)[C@@H]1Cc3cc4c(cc3[C@H](C2)N1C)OCO4 | – | inactive: -0.0455%
CCOc1ccc(S(=O)(=O)NCCC(=O)NCCOc2ccccc2)cc1 | – | inactive: -10.1%
C=CCC(Nc1ccccc1)C12C=CC(O1)C(C(=O)OC)=C2C(=O)OC (stereo not given) | inconclusive: 35.5 µM [inhibitor, single point] | –
Cc1ccc(-c2nnc(NC3CCCCC3)c3ccccc23)cc1S(=O)(=O)N1CCN(C)CC1 | inconclusive: 14.1 µM [inhibitor, partial curve] | –
COc1cc2c(Nc3ccc(NC(=O)c4ccccc4)cc3)ncnc2cc1OCCCN1CCOCC1 | inconclusive: 27.3 µM [inhibitor, single point] | –
COc1ccc(-n2cnc3cc(C(=O)NCCC4=CCCCC4)ccc32)cc1 | inconclusive: 39.8 µM [inhibitor, single point] | –

Compound | Potency | activity change, negative = inhibition
CC(C)n1ncc2c(C(=O)N3CCN(Cc4ccc(Br)s4)CC3)cc(C3CC3)nc21 | inconclusive: 28.2 µM [inhibitor, single point] | –
COc1cccc(-c2cc(C(=O)Nc3ccc(OC)cc3OC)no2)c1 | – | inactive: 2.41%
CC(C)CNc1ccnc(NCc2csc(-c3ccccc3)n2)n1 | inconclusive: 15.3 µM [inhibitor, partial curve] | –
CCOC(=O)C1=C(C)NC2=C(C(=O)CC(C)(C)C2)C1c1ccc(-c2ccccc2)cc1 (stereo not given) | inconclusive: 27.3 µM [inhibitor, partial curve] | –
CCOc1ccc(-c2csc(NC(=O)CSC3=NC(=O)CN3C(C)=O)n2)c2ccccc12 | – | inactive: -19.5%
CC(=O)Nc1ccc(-c2ccnc3c2CC(C(=O)Nc2cccc(Oc4ccccc4)c2)O3)cc1 (stereo not given) | inconclusive: 3.98 µM [inhibitor, partial curve, poor fit] | –
Clc1ccc(Nc2ncnc3ccc(Br)cc23)cc1 | inconclusive: 39.8 µM [inhibitor, partial curve, poor fit] | –
COc1ccccc1/C=C/C=N/n1c(-c2ccc(Cl)cc2)n[nH]c1=S | – | inactive: -1.51%
c1ccc(-c2nc(NCc3ccco3)c3ccccc3n2)nc1 | inconclusive: 5.01 µM [inhibitor, full curve] | –
O=C(COC(=O)CN1C(=O)c2ccccc2C1=O)NC1CCCC1 | – | inactive: 9.37%
COc1cccc(CNC(=O)c2ccc(C3SCCS3)cc2)c1 | – | inactive: 3.37%
O=C1C=C(c2ccc(O)cc2)C[C@@H](c2ccc(Cl)cc2)C1 | inconclusive: 25.1 µM [inhibitor, single point] | –
COc1cc(-c2ccc3oc(-c4ccsc4)cc(=O)c3c2)cc(OC)c1OC | inconclusive: 20 µM [inhibitor, partial curve] | –
Cc1ccc2c(c1)N(C(=O)CCC(=O)N1CCOCC1)CC(C)O2 (stereo not given) | – | inactive: 3.58%
O=C(NCCCN1CCOCC1)c1ccccc1N1C(=O)[C@@H]2Cc3c([nH]c4ccccc34)C(c3cccc(Cl)c3)N2C1=O (stereo not given in full) | inconclusive: 39.8 µM [inhibitor, single point] | –
O=S(=O)(c1ccc2c(c1)C(=NO)c1cc(S(=O)(=O)N3CCCCC3)ccc1-2)N1CCCCC1 | active: 3.55 µM | –
COc1ccc(N(C)C(=O)c2ccc3c(Cl)c4c(nc3c2)CCCC4)c(OC)c1 | inconclusive: 31.6 µM [inhibitor, partial curve, poor fit] | –
COc1ccc(-c2n(Cc3ccccc3)c3ccccc3[n+]2Cc2ccccc2)cc1 | inconclusive: 3.16 µM [inhibitor, full curve, poor fit] | –
N#Cc1nc(N2CCCCC2)nc(N2CCOCC2)n1 | inconclusive: 15.8 µM [inhibitor, partial curve] | –
CCN(CC)CCNC(=O)c1ccc(NC(=O)c2cn(-c3ccccc3)nc2-c2cccs2)cc1 | inconclusive: 31.6 µM [inhibitor, single point] | –
Cc1ccc(NC(=O)c2ccc(Cl)c(N3C(=O)C=CC3=O)c2)cc1 | inconclusive: 39.8 µM [inhibitor, single point] | –
Cc1ccc(C(=O)NNC(=S)NC(=O)c2ccccc2)cc1 | inconclusive: 6.7 µM [inhibitor, partial curve, poor fit] | –

Compound | Potency | activity change, negative = inhibition
O=C(COC(=O)/C=C/c1cn(-c2ccccc2)nc1-c1cccnc1)Nc1ccc(Cl)cc1Cl | inconclusive: 10 µM [inhibitor, partial curve] | –
OC[C@@H]1[C@@H](c2ccc(Cl)cc2)C(c2ccccc2)=NN1c1ccccc1 | inconclusive: 31.6 µM [inhibitor, single point] | –
Cc1ccccc1OC1C(=O)N(Cc2ccc3c(c2)OCO3)C1c1sccc1C (stereo not given) | inconclusive: 25.1 µM [inhibitor, single point] | –
Cc1sc2ncn(CCC(=O)O)c(=O)c2c1C | – | inactive: 3.38%
O=C(Nc1cccc2cccnc12)c1csc(COCCO)n1 | inconclusive: 2 µM [inhibitor, full curve] | –
CC(C)(C)c1ccc(/C=N/Nc2ccc(C(=O)O)cc2)cc1 | inconclusive: 11.2 µM [inhibitor, single point] | –
CCCOc1ccc2cc(-c3ccccn3)c(=O)oc2c1 | active: 3.55 µM | –
O=C(NCCC1=CCCCC1)c1coc(=O)c(Br)c1 | inconclusive: 25.1 µM [inhibitor, single point] | –
CCOC(=O)C1=C(CNCc2ccc(F)cc2)NC(=O)NC1c1cccc([N+](=O)[O-])c1 (stereo not given) | inconclusive: 10 µM [inhibitor, partial curve, poor fit] | –
CC(=O)Nc1cccc(C(=O)/C=C/c2ccc(Br)cc2)c1 | inconclusive: 35.5 µM [inhibitor, single point] | –
CC(=O)NCc1ccc(S(=O)(=O)N2CCN(S(=O)(=O)c3ccc4ccccc4c3)CC2)cc1 | inconclusive: 22.4 µM [inhibitor, partial curve, poor fit] | –
O=C(Nc1cccc(NC(=O)c2ccccc2Cl)c1)c1ccc([N+](=O)[O-])o1 | inconclusive: 14.1 µM [inhibitor, partial curve] | –
O=C(NCCCn1ccnc1)/C(=C\c1ccc(Br)cc1)NC(=O)c1ccccc1 | – | inactive: -10.8%
COc1ccc(N2CCN(Cc3cc(=O)oc4cc(-c5ccccc5)c(O)cc34)CC2)cc1 | inconclusive: 28.2 µM [inhibitor, single point] | –
COc1ccc(CNc2nc(-c3ccccc3)nn2C(=O)c2ccccc2OC)cc1 | – | inactive: 11.6%
COc1cc(Cl)c(S(=O)(=O)N2CCN(c3c(C)cccc3C)CC2)cc1Cl | – | inactive: 3.38%
COc1ccc(/C=C2/SC(=S)N(CCCC(=O)Nc3ccccc3C(=O)O)C2=O)cc1 | inconclusive: 11.2 µM [inhibitor, partial curve] | –
O=C(CC(=O)N/N=C/c1ccccc1O)NCc1cccnc1 | inconclusive: 20 µM [inhibitor, partial curve, poor fit] | –
Cc1cccc(N=C2NN=C(c3c(C)[nH]c4ccccc34)CS2)c1 | active: 28.2 µM | –
Cn1c(N)c(S(=O)(=O)N2CCN(c3ccccc3F)CC2)c(=O)n(C)c1=O | inconclusive: 7.08 µM [inhibitor, single point] | –
CN(CC(=O)N(Cc1ccc(C2CCCCC2)cc1)c1ccc(C(=O)O)c(O)c1)S(=O)(=O)c1c(F)c(F)c(F)c(F)c1F | inconclusive: 38.5 µM [inhibitor, single point] | –
